This note sets out measurements from patent US20250011379A1 (VERTEX PHARMACEUTICALS, published 2025).

First the molecules themselves.
T1: human C4b (human, UniProt P0C0L5 20-1744)
T1 chain 1: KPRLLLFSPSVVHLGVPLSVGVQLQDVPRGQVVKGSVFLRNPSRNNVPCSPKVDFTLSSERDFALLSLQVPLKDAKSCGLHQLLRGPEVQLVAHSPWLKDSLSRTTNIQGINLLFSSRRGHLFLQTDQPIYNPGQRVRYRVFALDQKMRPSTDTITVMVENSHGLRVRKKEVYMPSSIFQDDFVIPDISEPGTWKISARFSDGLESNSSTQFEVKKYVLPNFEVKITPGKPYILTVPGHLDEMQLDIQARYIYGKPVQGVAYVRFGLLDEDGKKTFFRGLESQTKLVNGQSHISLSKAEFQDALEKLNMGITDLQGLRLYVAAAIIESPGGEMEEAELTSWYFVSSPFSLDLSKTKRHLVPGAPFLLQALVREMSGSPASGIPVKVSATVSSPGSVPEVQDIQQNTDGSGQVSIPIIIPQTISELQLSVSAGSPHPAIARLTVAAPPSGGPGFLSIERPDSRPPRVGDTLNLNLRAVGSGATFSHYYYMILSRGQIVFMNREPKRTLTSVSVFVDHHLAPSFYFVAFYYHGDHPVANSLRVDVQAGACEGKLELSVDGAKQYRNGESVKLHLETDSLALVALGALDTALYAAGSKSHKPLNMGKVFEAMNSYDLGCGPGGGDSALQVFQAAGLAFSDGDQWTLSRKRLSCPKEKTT
T1 chain 2: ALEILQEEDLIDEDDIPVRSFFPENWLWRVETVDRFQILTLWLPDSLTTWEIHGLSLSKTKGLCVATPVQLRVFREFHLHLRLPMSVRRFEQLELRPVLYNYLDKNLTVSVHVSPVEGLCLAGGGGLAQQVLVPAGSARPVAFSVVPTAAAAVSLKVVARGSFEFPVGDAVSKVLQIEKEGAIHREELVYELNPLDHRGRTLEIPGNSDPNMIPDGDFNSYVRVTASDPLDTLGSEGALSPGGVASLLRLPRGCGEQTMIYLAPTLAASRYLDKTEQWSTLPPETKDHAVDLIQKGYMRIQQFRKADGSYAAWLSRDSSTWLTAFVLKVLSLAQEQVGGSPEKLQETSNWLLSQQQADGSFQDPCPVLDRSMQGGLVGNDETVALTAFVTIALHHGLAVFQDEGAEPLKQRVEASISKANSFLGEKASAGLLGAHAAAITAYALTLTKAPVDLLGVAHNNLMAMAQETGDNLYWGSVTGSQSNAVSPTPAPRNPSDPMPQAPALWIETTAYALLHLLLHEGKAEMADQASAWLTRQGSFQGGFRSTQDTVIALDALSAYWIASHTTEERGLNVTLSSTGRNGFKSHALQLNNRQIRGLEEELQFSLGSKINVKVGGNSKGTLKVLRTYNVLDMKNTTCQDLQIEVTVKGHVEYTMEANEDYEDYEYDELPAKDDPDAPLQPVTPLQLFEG
T1 chain 3: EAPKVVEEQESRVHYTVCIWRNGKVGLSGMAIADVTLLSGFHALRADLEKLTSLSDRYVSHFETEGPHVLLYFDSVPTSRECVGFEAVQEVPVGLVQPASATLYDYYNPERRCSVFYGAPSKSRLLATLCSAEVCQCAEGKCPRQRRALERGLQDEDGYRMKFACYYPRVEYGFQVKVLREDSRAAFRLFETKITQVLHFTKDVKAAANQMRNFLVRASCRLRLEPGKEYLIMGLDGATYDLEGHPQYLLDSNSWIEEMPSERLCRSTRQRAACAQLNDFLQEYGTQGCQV

B1: Const. No. 91: HSA-GGSSGG-hCFI; T377A; E457G; N531G (enzyme)
chain: [not shown - about 600 residues]GGSSGGKVTYTSQEDLVEKKCLAKKYTHLSCDKVFCQPWQRCIEGTCVCKLPYQCPKNGTAVCATNRRSFPTYCQQKSLECLHPGTKFLNNGTCTAEGKFSVSLKHGNTDSEGIVEVKLVDQDKTMFICKSSWSMREANVACLDLGFQQGADTQRRFKLSDLSINSTECLHVHCRGLETSLAECTFTKRRTMGYQDFADVVCYTQKADSPMDDFFQCVNGKYISQMKACDGINDCGDQSDELCCKACQGKGFHCKSGVCIPSQYQCNGEVDCITGEDEVGCAGFASVTQEETEILTADMDAERRRIKSLLPKLSCGVKNRMHIRRKRIVGGKRAQLGDLPWQVAIKDASGITCGGIYIGGCWILTAAHCLRASKTHRYQIWTAVVDWIHPDLKRIVIEYVDRIIFHENYNAGTYQNDIALIEMKKDGNKKDCELPRSIPACVPWSPYLFQPNDTCIVSGWGRGKDNERVFSLQWGEVKLISNCSKFYGNRFYEKEMECAGTYDGSIDACKGDSGGPLVCMDANNVTYVWGVVSWGEGCGKPEFPGVYTKVANYFDWISYHVGRPFISQYNV
B2: Const. No. 95: HSA linked with CFI (CFI-HSA), wild type (enzyme)
chain: [not shown - about 600 residues]GGSSGGKVTYTSQEDLVEKKCLAKKYTHLSCDKVFCQPWQRCIEGTCVCKLPYQCPKNGTAVCATNRRSFPTYCQQKSLECLHPGTKFLNNGTCTAEGKFSVSLKHGNTDSEGIVEVKLVDQDKTMFICKSSWSMREANVACLDLGFQQGADTQRRFKLSDLSINSTECLHVHCRGLETSLAECTFTKRRTMGYQDFADVVCYTQKADSPMDDFFQCVNGKYISQMKACDGINDCGDQSDELCCKACQGKGFHCKSGVCIPSQYQCNGEVDCITGEDEVGCAGFASVTQEETEILTADMDAERRRIKSLLPKLSCGVKNRMHIRRKRIVGGKRAQLGDLPWQVAIKDASGITCGGIYIGGCWILTAAHCLRASKTHRYQIWTTVVDWIHPDLKRIVIEYVDRIIFHENYNAGTYQNDIALIEMKKDGNKKDCELPRSIPACVPWSPYLFQPNDTCIVSGWGREKDNERVFSLQWGEVKLISNCSKFYGNRFYEKEMECAGTYDGSIDACKGDSGGPLVCMDANNVTYVWGVVSWGENCGKPEFPGVYTKVANYFDWISYHVGRPFISQYNV
B3: Const. No. 70: HSA-GGSSGGSSGG-Rat CFI (enzyme)
chain: [not shown - about 600 residues]GGSSGGSSGGKNTPASGQPQEDLVEQKCLLKNYTHHSCDKVFCQPWQKCIEGTCACKLPYQCPKAGTPVCATNGRGYPTYCHLKSFECLHPEIKFSNNGTCTAEEKFNVSLIYGSTDTEGIVQVKLVDQDEKMFICKNSWSTVEANVACFDLGFPLGVRDIQGRFNIPVNHKINSTECLHVRCQGVETSLAECTFTKKSSKAPHGLAGVVCYTQDADFPTSQSFQCVNGKRIPQEKACDGVNDCGDQSDELCCKGCRGQAFLCKSGVCIPNQRKCNGEVDCITGEDESGCEEDKKNKIHKGLARSDQGGETEIETEETEMLTPDMDTERKRIKSLLPKLSCGVKRNTHIRRKRVVGGKPAEMGDYPWQVAIKDGDRITCGGIYIGGCWILTAAHCVRPSRYRNYQVWTSLLDWLKPNSQLAVQGVSRVVVHEKYNGATYQNDIALVEMKKHPGKKECELINSVPACVPWSPYLFQPNDRCIISGWGREKDNQKVYSLRWGEVDLIGNCSRFYPGRYYEKEMQCAGTSDGSIDACKGDSGGPLVCKDVNNVTYVWGIVSWGENCGKPEFPGVYTRVASYFDWISYYVGRPLVSQYNV

The target of the experiment is T1, human C4b. Put plainly: cell-based or functional assay.
Turning to B1, the “C4c EC50” value is 13.8 nM.

With B2, the “C4c EC50” value is 292 nM.

As for B3, the “C4c EC50” value came to 16.6 nM.
